The source of these data is patent publication US20190345207A1 (Pieris, published 2019).

Test [1] addresses T1, cynomolgus LAG-3 on CHO cells stably transfected with cyLAG-3 (CHO-cyLAG-3) (cynomolgus monkey).
T1 construct: whole, on cells; also called CHO::cynomolgus LAG-3
Nature of the test: FACS on Flp-In CHO cells stably transfected with cynomolgus LAG-3; bound mutein detected with rabbit anti-TLPC Alexa 488; GeoMean [Fl1-H Log] against concentration [nM] [lower panel].

The target of test [2] is T2, human LAG-3 on CHO cells stably transfected with huLAG-3 (CHO-huLAG-3) (human, UniProt P18627 23-525).
T2 construct: whole, on cells; also called CHO::human LAG-3
T2 sequence (looked up): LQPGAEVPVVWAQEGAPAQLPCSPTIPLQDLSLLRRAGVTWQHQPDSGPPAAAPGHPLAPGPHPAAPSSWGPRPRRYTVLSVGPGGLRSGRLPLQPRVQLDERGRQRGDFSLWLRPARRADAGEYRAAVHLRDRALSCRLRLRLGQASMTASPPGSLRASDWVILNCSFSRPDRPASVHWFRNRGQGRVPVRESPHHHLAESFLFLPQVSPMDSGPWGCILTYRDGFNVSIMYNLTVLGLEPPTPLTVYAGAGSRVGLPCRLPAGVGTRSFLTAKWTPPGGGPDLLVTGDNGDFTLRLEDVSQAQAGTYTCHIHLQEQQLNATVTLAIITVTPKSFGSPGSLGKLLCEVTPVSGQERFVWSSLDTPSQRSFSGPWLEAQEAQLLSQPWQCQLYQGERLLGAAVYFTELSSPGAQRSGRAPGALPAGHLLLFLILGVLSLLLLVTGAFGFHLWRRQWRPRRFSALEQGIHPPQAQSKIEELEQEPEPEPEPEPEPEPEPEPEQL
Nature of the test: FACS on CHO-huLAG-3 cells.

For test [3], the target named is T3, huLAG-3-Fc (human LAG-3 extracellular domain fused to human IgG1 Fc fragment, R&D systems) (human, UniProt P18627 23-450).
T3 construct: extracellular domain; Bought from R&D Systems; also called human LAG-3-Fc fusion; not shown: human IgG1 Fc fragment
T3 sequence (looked up): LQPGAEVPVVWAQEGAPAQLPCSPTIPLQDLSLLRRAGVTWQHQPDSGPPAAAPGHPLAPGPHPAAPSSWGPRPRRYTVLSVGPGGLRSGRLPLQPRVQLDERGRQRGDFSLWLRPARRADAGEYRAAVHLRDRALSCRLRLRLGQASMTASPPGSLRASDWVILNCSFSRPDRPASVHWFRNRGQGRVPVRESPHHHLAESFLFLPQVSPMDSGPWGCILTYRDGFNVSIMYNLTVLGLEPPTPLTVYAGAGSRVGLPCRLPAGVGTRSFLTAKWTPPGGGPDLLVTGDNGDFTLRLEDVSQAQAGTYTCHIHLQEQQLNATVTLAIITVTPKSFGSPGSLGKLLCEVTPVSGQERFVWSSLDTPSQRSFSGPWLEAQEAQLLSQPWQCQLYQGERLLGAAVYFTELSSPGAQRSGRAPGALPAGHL
Nature of the test: competition FACS, 3 nM huLAG-3-Fc vs MHC class II on A375 cells.

In test [4] the target is T3, huLAG-3-Fc (human LAG-3 extracellular …). Nature of the test: SPR, Fc-captured target, mutein analyte. As for the experimental part:
The anti-human IgG Fc antibody (GE Healthcare) was immobilized on a CM5 sensor chip using standard amine chemistry: the carboxyl groups on the chip were activated using 1-ethyl-3-(3-dimethylaminopropyl)-carbodiimide (EDC) and N-hydroxysuccinimide (NHS). […] Residual non-reacted NHS-esters were blocked by passing a solution of 1M ethanolamine across the surface. The reference channel was treated in an analogous manner.
All measurements were performed at 25° C. […] Prior to the protein measurements, three startup cycles were performed for conditioning purposes. […] Double referencing was used and the 1:1 binding model was used to fit the raw data.

For test [5], the target named is T1, cynomolgus LAG-3 on CHO cells stably …. Nature of the test: FACS on transfected CHO cells.
For test [6], the target named is T2, human LAG-3 on CHO cells stably …. Nature of the test: FACS on transfected CHO cells.

B1: SEQ ID NO: 11 (designed binder)
lipocalin mutein: TSDEEIQDVSGTWYLKAMTVDSDCFWIDDVSVTPMTLTTLEGGNLEAKATMDIFGFWQEVEAVLEKTDEPGKYTTDGGKHVAYIIRSHVKDHHIFYSEGECAGYPVPGVWLVGRDPKNNLEALEDFEKAAGARGLSTESILIPRQSETSSPGP
notes: written as printed on the sheet
What is called EC50 (read off the curve) is the concentration needed to bring the measured effect to its halfway point. Low values mean higher potency in that assay, high ones lower potency in that assay. As for B1, the “EC50 (read off the curve)” value in test [1] is ~10 nM.

B2: negative control lipocalin mutein (SEQ ID NO: 3) (designed binder)
chain: ASDEEIQDVSGTWYLKAMTVDRECPEMNLESVTPMTLTTLEGGNLEAKVTMLISGRSQEVKAVLEKTDEPGKYTADGGKHVAYIIRSHVKDHYIFYSEGECHGKPVPGVWLVGRDPKNNLEALEDFEKAAGARGLSTESILIPRQSETSSPG
notes: Negative control hTlc mutein
Take B2: in test [2], the binding result is given as “no binding (tested: 1 uM)”.

B3: lipocalin mutein SEQ ID NO: 19 (designed binder)
chain: ASDEEIQDVPGTWYLKAMTVSGEDPEMMLESVTPMTLTTLEGGNLEARVTVLIDGRCQEVKNVLEKTDEPGKYTEDGGKHVDYIIRSHVKDHYIFYFEGEGQGTPGRMVALVGRDPTNNLEALEDFEKAAGARGLSTESILIPRQSETCSPG
notes: Parental LAG-3 specific hTlc mutein; also called parental lipocalin mutein
In general, IC50 refers to the concentration that gives 50% inhibition. Higher therefore signals lower potency. What is called Kd is the free concentration of one partner at which half of the binding sites on the other are occupied at equilibrium, for simple one-to-one binding. Low readings indicate a tighter complex, high ones a looser complex. One may read the koff as a measure of how fast the partners let go of each other. A high value points to fast dissociation. The kon is a measure of how fast the partners come together. Read a low kon as slow association. What is called EC50 is the concentration needed to bring the measured effect to its halfway point. A higher EC50 goes with lower potency in that assay. In test [3], B3 came in with a half-inhibitory concentration (IC50) of 1.2 nM. In test [4], this molecule displayed a dissociation constant Kd of 2.74 nM, a dissociation rate constant (koff) of 0.000718 s⁻¹ and an association rate constant (kon) of 262000 M⁻¹ s⁻¹. Also, a half-maximal effect in test [5] (EC50) was put at 26.2 nM. In addition, in test [6], a half-maximal response (EC50) required 4.09 nM.

B4: lipocalin mutein SEQ ID NO: 88 (designed binder)
chain: TSDEEIQDVSGTWYLKAMTVDSDCFWIDDVSVTPMTLTTLEGGNLEAKATMDIFGFWQEVEAVLEKTDEPGKYTTDGGKHVAYIIRSHVKDHHIFYSEGECAGYPVPGVWLVGRDPKNNLEALEDFEKAAGARGLSTESILIPRQSETSSPGSAWSHPQFEK
notes: also called optimized LAG-3 specific lipocalin mutein
B4 yielded a half-maximal inhibitory concentration (IC50) in test [3] of 1.4 nM. Further, in test [4], binding was put at a Kd of 0.05 nM, the dissociation rate constant (koff) was determined as 0.000288 s⁻¹ and the association rate constant (kon) turned out to be 5.81e+06 M⁻¹ s⁻¹. The same molecule came in with a half-maximal effective concentration (EC50) in test [5] of 9.3 nM. In test [6], this molecule returned an EC50 of 0.18 nM.

B5: lipocalin mutein SEQ ID NO: 94 (designed binder)
chain: ASDEEFQDVSGTWYLKAMTVDSDCFWIDDVSVTPMTLTTLEGGNLEAKVTMDIFGFWQEVEAVLEKTDAPGKYTADGGKHVAYINRSHEKDHYIFYSEGECAGYPVPGVWLVGRDPKNNLEALEDFEKAAGARGLSTESILIPRQSETSSPGSAWSHPQFEK
notes: as for B4
As for B5, in test [3], the IC50 was 0.41 nM. In test [4], this molecule returned a Kd of 0.144 nM, a koff of 0.0007 s⁻¹ and an on-rate constant (kon) of 4.87e+06 M⁻¹ s⁻¹. This molecule also displayed an EC50 in test [5] of 117 nM. The response in test [6] was half-maximal at 0.53 nM (EC50).

B6: lipocalin mutein SEQ ID NO: 91 (designed binder)
chain: ASDEEIQDVSGTWYLKAMTVDSDCFWIDDVSVTPMTLTTLEGGNLEAKVTMDIFGFWQDVEAVLEKTDEPGKYTADGGKHVAYIIRSHVKDHYIFYSEGECAGYPVPGVWLVGRDPKNNLEALEDFEKAAGARGLSTESILIPRLSETSSPGSAWSHPQFEK
notes: as for B4
In turn, B6 yielded an IC50 in test [3] of 0.39 nM. Further, in test [4], the Kd was found to be 0.119 nM, the koff came to 0.000662 s⁻¹ and the kon was determined as 5.56e+06 M⁻¹ s⁻¹. The molecule further returned an EC50 in test [5] of 74.3 nM. This molecule also gave an EC50 in test [6] of 0.61 nM.

B7: lipocalin mutein SEQ ID NO: 89 (designed binder)
chain: ASDEEIQDVSGTWYLKAMTVDSDCFWIDDVSVTPMTLTTLEGGNLEAKVTMDIFGFWQDVKAVLEKTDEPGKYTADGGKHDAYIISSHVKDNYIFYSEGECAGYPVPGVWLVGRDPKNNQEALEDFEKAAGARGLSTESILIPRQSETSSPGSAWSHPQFEK
notes: as for B4
Molecule B7 gave a concentration for half-maximal inhibition (IC50) in test [3] of 0.58 nM. In test [4], this molecule displayed a dissociation constant (Kd) of 0.095 nM, an off-rate (koff) of 0.000467 s⁻¹ and a kon of 4.93e+06 M⁻¹ s⁻¹. In test [5], this molecule showed an EC50 of 41.7 nM. The molecule further had an EC50 in test [6] of 0.85 nM.

B8: lipocalin mutein SEQ ID NO: 90 (designed binder)
chain: ASDEEIQDVSGMWYLKAMTVDSDCFWIDDVSVTPMTLTTHEGGNLEAKVTMDIFGFWQEVEAVLEKTDEPGKYTADGGKHVAYISRSHVKDHYIFYSEGECAGYPVPGVWLVGRDPKNNLEALEDFEKAAGARGLSTESILIPRQSETSSPGSAWSHPQFEK
notes: as for B4
The molecule B8 had a half-maximal inhibitory concentration (IC50) in test [3] of 0.25 nM. In test [4], this molecule had a Kd of 0.13 nM, a koff of 0.000618 s⁻¹ and a kon of 4.75e+06 M⁻¹ s⁻¹. Also, the EC50 in test [5] amounted to 103 nM. For the same molecule, a half-maximal response in test [6] (EC50) required 0.02 nM.

B9: lipocalin mutein SEQ ID NO: 93 (designed binder)
chain: TSDEEIQDVSGTWYLKAMTVDSDCFWIDDVSVTPMTLTTLEGGNLEAKVTMDIFGFWQEVEAVLEKTDEPGKYTAGGGKHVAYINRSHVKDHYVFYSEGECAGYPVPGVWLVGRDPKNNLEALEDFEKAAGARGLSTESILIPRQSETSSPGSAWSHPQFEK
notes: as for B4
For the molecule B9, in test [3], the IC50 was 0.29 nM. For the same molecule, in test [4], binding was characterised by a dissociation constant (Kd) of 0.105 nM, the koff amounted to 0.000463 s⁻¹ and the kon was determined as 4.41e+06 M⁻¹ s⁻¹. In test [5], this molecule returned a concentration giving a half-maximal response (EC50) of 42.7 nM. The molecule also had a 50% effective concentration (EC50) in test [6] of 0.69 nM.
